# A collection of fitness landscapes (doi:10.1126/science.1257360)
# Some of the results follow.
# B1: PhoQ; a variant is named by its letters at X, in order, P23837 (parent)
# chain: MKKLLRLFFPLSLRVRFLLATAAVVLVLSLAYGMVALIGYSVSFDKTTFRLLRGESNLFYTLAKWENNKLHVELPENIDKQSPTMTLIYDENGQLLWAQRDVPWLMKMIQPDWLKSNGFHEIEADVNDTSLLLSGDHSIQQQLQEVREDDDDAEMTHSVAVNVYPATSRMPKLTIVVVDTIPVELKSSYMVWSWFIYVLSANLLLVIPLLWVAAWWSLRPIEALAKEVRELEEHNRELLNPATTRELTSLVRNLNRLLKSERERYDKYRTTLTDLTHSLKTPLXXLQXXLRSLRSEKMSVSDAEPVMLEQISRISQQIGYYLHRASMRGGTLLSRELHPVAPLLDNLTSALNKVYQRKGVNISLDISPEISFVGEQNDFVEVMGNVLDNACKYCLEFVEISARQTDEHLYIVVEDDGPGIPLSKREVIFDRGQRVDTLRPGQGVGLAVAREITEQYEGKIVAGESMLGGARMEVIFGRQHSAPKDE
# Variants of: B1
# Test: enrichment ratio after two sorts for PhoP signalling (ratio (wild type AVST 3.29)); higher = more functional
# Conditions: with PhoP (E. coli)
row,Variant,enrichment ratio
1,YIFM,≤ 0.25
2,ASND,≤ 0.25
3,ILCM,≤ 0.25
4,MGCL,3.84
5,NIIK,≤ 0.25
6,HFAD,≤ 0.25
7,EKVC,≤ 0.25
8,LELE,≤ 0.25
9,LMCY,≤ 0.25
10,RPCE,≤ 0.25
11,YWLQ,≤ 0.25
12,DYQP,≤ 0.25
13,QVIS,≤ 0.25
14,PEPW,≤ 0.25
15,PSEW,≤ 0.25
16,SPKS,≤ 0.25
17,NFDS,≤ 0.25
18,MFAH,≤ 0.25
19,VDIT,≤ 0.25
20,LCQQ,≤ 0.25
21,HSQY,≤ 0.25
22,KSNY,≤ 0.25
23,KGAI,≤ 0.25
24,QVAP,≤ 0.25
25,SQEI,≤ 0.25

row,Variant,enrichment ratio
1,NRAY,≤ 0.25
2,MREI,≤ 0.25
3,YPKY,≤ 0.25
4,FIHH,≤ 0.25
5,LAIQ,≤ 0.25
6,PVTY,≤ 0.25
7,PVFS,≤ 0.25
8,VLRW,0.62
9,IHQD,≤ 0.25
10,EYYI,≤ 0.25
11,KAVS,≤ 0.25
12,HIRC,≤ 0.25
13,FSEQ,≤ 0.25
14,EMNS,≤ 0.25
15,LCVT,≤ 0.25
16,DMLW,≤ 0.25
17,HPVQ,≤ 0.25
18,ILPS,≤ 0.25
19,VDNA,≤ 0.25
20,TGQA,3.89
21,MHGP,≤ 0.25
22,VAYV,≤ 0.25
23,YNLE,1
24,YYRV,≤ 0.25
25,KFDT,≤ 0.25

row,Variant,enrichment ratio
1,TGPH,≤ 0.25
2,KVVF,≤ 0.25
3,DTNW,≤ 0.25
4,HFVQ,≤ 0.25
5,MYPV,≤ 0.25
6,DAHN,≤ 0.25
7,QSEQ,≤ 0.25
8,FQNP,≤ 0.25
9,PSRV,≤ 0.25
10,MRCM,≤ 0.25
11,MAFW,≤ 0.25
12,DPIC,≤ 0.25
13,SEMV,23.8
14,TSVQ,3.16
15,QGGR,≤ 0.25
16,HLTT,≤ 0.25
17,FVPH,≤ 0.25
18,LCNS,≤ 0.25
19,NICG,0.875
20,GMTA,≤ 0.25
21,HNLF,≤ 0.25
22,ISRA,≤ 0.25
23,GHNC,≤ 0.25
24,RQSY,≤ 0.25
25,HFRH,≤ 0.25

row,Variant,enrichment ratio
1,EETN,≤ 0.25
2,YFYA,≤ 0.25
3,AFRV,≤ 0.25
4,WFRT,≤ 0.25
5,AFAH,≤ 0.25
6,RSHR,≤ 0.25
7,ADAW,≤ 0.25
8,GKYS,≤ 0.25
9,PISQ,≤ 0.25
10,QHWA,≤ 0.25
11,RVYC,≤ 0.25
12,HHSA,≤ 0.25
13,TKVM,36.7
14,YSST,≤ 0.25
15,KAKI,≤ 0.25
16,GHPT,≤ 0.25
17,TKHG,≤ 0.25
18,HNSM,0.923
19,QTFY,≤ 0.25
20,EQFI,≤ 0.25
21,WGSN,≤ 0.25
22,VWLN,≤ 0.25
23,HNEF,≤ 0.25
24,EGYR,≤ 0.25
25,VWHK,≤ 0.25

row,Variant,enrichment ratio
1,FAPY,≤ 0.25
2,DNMD,≤ 0.25
3,LNCC,≤ 0.25
4,IFRD,≤ 0.25
5,EIVN,≤ 0.25
6,NWYA,≤ 0.25
7,FKQL,≤ 0.25
8,LRQN,≤ 0.25
9,ACQY,0.317
10,SGHA,≤ 0.25
11,VRRA,≤ 0.25
12,HGHY,≤ 0.25
13,SFKK,≤ 0.25
14,GMGT,≤ 0.25
15,WSYY,≤ 0.25
16,NCVY,≤ 0.25
17,NTKG,≤ 0.25
18,MVHM,≤ 0.25
19,DIDM,≤ 0.25
20,TQPC,≤ 0.25
21,TYTK,≤ 0.25
22,HETL,≤ 0.25
23,GALC,9.42
24,WRNC,≤ 0.25
25,AYAG,≤ 0.25

row,Variant,enrichment ratio
1,IDCP,≤ 0.25
2,QRCP,≤ 0.25
3,FIIG,≤ 0.25
4,IYDF,≤ 0.25
5,PHGY,≤ 0.25
6,TYNN,0.28
7,QVNN,≤ 0.25
8,LCYL,0.949
9,VMHS,≤ 0.25
10,VQDW,≤ 0.25
11,EVLT,≤ 0.25
12,AYCC,0.342
13,SAFH,≤ 0.25
14,PTVW,≤ 0.25
15,FCCG,≤ 0.25
16,DLET,≤ 0.25
17,LRKW,≤ 0.25
18,FFLH,≤ 0.25
19,YLHP,≤ 0.25
20,QITL,≤ 0.25
21,FTQG,≤ 0.25
22,LGMA,≤ 0.25
23,RVRG,≤ 0.25
24,RAMC,≤ 0.25
25,VNAH,≤ 0.25

row,Variant,enrichment ratio
1,AKIN,≤ 0.25
2,KGQV,≤ 0.25
3,GWCR,≤ 0.25
4,NRFH,≤ 0.25
5,VYAV,≤ 0.25
6,QFIF,≤ 0.25
7,GASF,≤ 0.25
8,FHMK,≤ 0.25
9,RPHY,≤ 0.25
10,TNGK,≤ 0.25
11,HWVH,≤ 0.25
12,APTF,≤ 0.25
13,YDWL,≤ 0.25
14,GIYV,≤ 0.25
15,MHCK,≤ 0.25
16,GSFR,≤ 0.25
17,MKGQ,≤ 0.25
18,GMDD,≤ 0.25
19,YLLR,≤ 0.25
20,VERI,≤ 0.25
21,TDQS,0.714
22,VEFE,≤ 0.25
23,HEYN,≤ 0.25
24,FYSS,≤ 0.25
25,MPKC,≤ 0.25

row,Variant,enrichment ratio
1,EPQG,≤ 0.25
2,DPGH,≤ 0.25
3,QMWF,1.36
4,KDVA,≤ 0.25
5,YNAH,≤ 0.25
6,LHSF,≤ 0.25
7,STCH,12.6
8,LTNE,≤ 0.25
9,QLCE,≤ 0.25
10,ADWH,≤ 0.25
11,GSEH,≤ 0.25
12,SKSI,5.03
13,INPD,≤ 0.25
14,GLFF,≤ 0.25
15,REDG,≤ 0.25
16,MTHC,≤ 0.25
17,NNAG,≤ 0.25
18,NAFK,≤ 0.25
19,PINM,≤ 0.25
20,NDWS,≤ 0.25
